In publication PMC4336329 (PLoS ONE, 2015):
About 14,000 (4.5%) of roughly 310,000 compounds showed an effect of 50% or more. Effects have a minus sign here. This is one part of the list.

biological target: human ether-à-go-go-related gene (hERG) potassium channel (human, UniProt Q12809); test: primary screen, population patch clamp on CHO cells stably expressing hERG
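Further: peak tail current of the secondary pulse compared with the same well before compound.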

Chain of human ether-à-go-go-related gene (hERG) potassium channel (Q12809 whole entry, looked up): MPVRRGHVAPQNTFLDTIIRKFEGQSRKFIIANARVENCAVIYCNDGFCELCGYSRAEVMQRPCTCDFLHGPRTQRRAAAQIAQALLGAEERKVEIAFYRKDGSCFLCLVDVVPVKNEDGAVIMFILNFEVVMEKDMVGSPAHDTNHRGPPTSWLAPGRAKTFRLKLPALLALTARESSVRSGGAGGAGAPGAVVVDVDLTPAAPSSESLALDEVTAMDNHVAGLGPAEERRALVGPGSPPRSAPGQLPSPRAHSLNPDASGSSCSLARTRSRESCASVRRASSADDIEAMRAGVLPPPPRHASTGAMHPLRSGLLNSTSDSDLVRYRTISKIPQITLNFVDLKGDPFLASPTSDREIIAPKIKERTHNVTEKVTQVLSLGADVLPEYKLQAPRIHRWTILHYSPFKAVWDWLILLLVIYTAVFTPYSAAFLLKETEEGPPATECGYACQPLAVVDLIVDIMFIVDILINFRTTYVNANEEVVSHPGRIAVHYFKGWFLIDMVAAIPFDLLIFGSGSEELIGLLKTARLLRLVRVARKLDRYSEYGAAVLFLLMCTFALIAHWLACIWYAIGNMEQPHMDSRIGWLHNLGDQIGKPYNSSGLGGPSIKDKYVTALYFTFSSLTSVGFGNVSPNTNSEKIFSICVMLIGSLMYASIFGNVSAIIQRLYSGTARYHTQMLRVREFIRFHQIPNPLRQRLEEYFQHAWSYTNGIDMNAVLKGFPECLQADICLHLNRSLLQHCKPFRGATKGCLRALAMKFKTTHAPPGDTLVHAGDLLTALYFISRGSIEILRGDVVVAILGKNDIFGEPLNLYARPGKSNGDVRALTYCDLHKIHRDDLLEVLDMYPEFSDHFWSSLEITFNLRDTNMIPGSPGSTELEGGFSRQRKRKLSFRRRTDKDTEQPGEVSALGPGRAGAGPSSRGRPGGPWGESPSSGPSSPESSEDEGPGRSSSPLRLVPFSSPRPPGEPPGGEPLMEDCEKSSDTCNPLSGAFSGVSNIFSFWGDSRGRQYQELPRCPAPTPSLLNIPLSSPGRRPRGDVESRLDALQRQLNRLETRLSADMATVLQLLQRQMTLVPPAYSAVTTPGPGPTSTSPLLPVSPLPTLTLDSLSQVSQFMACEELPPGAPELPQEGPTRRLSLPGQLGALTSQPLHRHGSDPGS

SMILES | hERG current change (%, negative = inhibition) at 10uM
COc1ccc(NC(=O)N2CCCC2C(=O)Nc2ccc(C)cc2C)cc1 (stereo not shown) | 0.743%
CN(C(=O)Cn1nnc2ccccc2c1=O)C1CCCCC1 | -8.8%
Cc1cc(C[n+]2cc(Br)ccc2N)c2ncccc2c1.[Br-] | -68%
c1ccc(Cn2nnnc2CN2CCOCC2)cc1 | -0.538%
Cc1cccc(C(=O)N2CCC(=O)N(C(COCc3cccc(Cl)c3)Cc3ccccc3)CC2)c1 (stereo not shown) | -11.6%
COc1ccc(S(=O)(=O)n2nc(OC(=O)c3ccccc3Br)cc2N)cc1 | 0.611%
O=C(Nc1ccc(NC(=O)c2ccccn2)cc1)C(=O)Nc1ccc2c(c1)OCCO2 | 18.8%
COc1ccc(-c2ccc3oc(-c4ccc(OC)cc4)c(C#CCCO)c3c2)cc1 | 9.38%
COc1ccc(C(=O)Nc2ccccc2C(=O)NC(Cc2ccc(O)cc2)C(=O)NNC(=O)c2ccc(C)cc2)cc1 (stereo not shown) | 4.45%
CC(=O)N[C@@H](Cc1c[nH]c2ccccc12)C(=O)OCc1ccc(C#N)cc1 | -22.8%
COc1ccccc1N1CCN(C(=O)c2noc(C(C)C)c2[N+](=O)[O-])CC1 | 13%
CC(=O)c1ccc(N2CCN(S(=O)(=O)c3ccc4ccccc4c3)CC2)cc1 | 3.28%
O=C1ON=C(c2cccc([N+](=O)[O-])c2)/C1=C/c1ccc(O)cc1 | 21.9%
Cn1c(COc2cccc3cccnc23)nnc1SCC(=O)O | 9.13%
COc1cc(NS(=O)(=O)c2c(C)oc3c(F)c(F)c(F)c(F)c23)cc(OC)c1OC | -26.7%
O=C(Nc1nnc(SCc2ccccc2F)s1)C1=COCCO1 | -30.6%
COc1ccc(NS(=O)(=O)c2ccc(NS(=O)(=O)c3ccc(SC)cc3)cc2)c(OC)c1 | -6.56%
CCCc1cc(=O)[nH]c(/N=C(/NC(=O)C(C)N2C(=O)c3ccccc3C2=O)Nc2ccccc2)n1 (stereo not shown) | 13.5%
COc1ccccc1C1/C(=C(/O)c2ccc(OC(C)C)cc2)C(=O)C(=O)N1c1cc(C)on1 (stereo not shown) | -1.75%
O=C1CSC(c2ccccc2F)N1c1ccccc1 (stereo not shown) | 0.868%
Nn1c(COc2cccc(Cl)c2)nc2ccccc2c1=O | -11.8%
COC(=O)Nc1ccc(S(=O)(=O)Nc2ccccc2F)cc1 | 13.6%
O=C(Cc1ccc(S(=O)(=O)N2CCOCC2)s1)Nc1cc(C(F)(F)F)ccc1N1CCCC1 | -22.6%
CN1CCCN(C(=O)COc2ccccc2Br)CC1 | -2.57%
CN(C)S(=O)(=O)c1cccc(NC(=O)c2ccc(Sc3nncn3C)c([N+](=O)[O-])c2)c1 | 7.09%
COc1cc2c(cc1OC)[C@H](Cc1ccc(O)cc1)NCC2 | 2.2%
COc1ccc(/C=C2/C(=O)N=C(N)N2C)cc1OC | 7.3%
COc1ccc(C/C(C)=N/NC(=S)Nc2ccccc2)cc1 | 1.88%

SMILES | hERG current change (%, negative = inhibition) at 10uM
Cc1ccc(-c2cc(C(=O)Nc3ccc4c(c3)OCCO4)c3ccccc3n2)cc1 | 14.2%
CC(C)(C)C(=O)NC(=S)Nc1ccc(Cl)c(C(=O)O)c1 | 24.4%
CCC(C)N(C(=O)CSc1nc(-c2ccccc2)cs1)C1CCS(=O)(=O)C1 (stereo not shown) | -8.26%
O=C(O)/C=C/c1ccccc1Oc1ccccc1 | 14%
CC(C)Sc1nnc([C@@H]2CCCN2C(=O)OC(C)(C)C)o1 | 14.7%
O=C(CN1CCN(S(=O)(=O)c2ccc(Cl)cc2)CC1)Nc1ccc2c(c1)OCCO2 | -5.94%
CCOC(=S)N/C(=N\S(C)(=O)=O)c1ccccc1 | -2.92%
Cc1ccn2c(=O)c(C(=O)NCCC3=CCCCC3)c(O)nc2c1 | 3.47%
N/C(=N\O)c1ccc(NC(=O)c2ccc(Br)o2)cc1 | -12.4%
COC(=O)C1(C)NC(c2ccc(O)cc2)C2C(=O)N(c3ccc(F)cc3)C(=O)C21 (stereo not shown) | 12.4%
Cc1ccc(NC(=O)C(=O)NNC(=O)c2ccccc2C)cc1Cl | -5.32%
CC(C)(C)NCC(O)(c1ccc(Cl)cc1)c1ccc(Cl)cc1 | -13.8%
O=C(CN1C(=O)NC2(CCCCCC2)C1=O)Nc1ccc(S(=O)(=O)N2CCOCC2)cc1 | 9.75%
CC(=O)N(CC1CCCO1)c1nnc(-c2cnccn2)s1 (stereo not shown) | 12.8%
Cc1ccc(S(=O)(=O)NNC2=NS(=O)(=O)c3ccccc32)c(C)c1 | 16.1%
CCCCN(CCCC)S(=O)(=O)c1ccc(OC)c2ncccc12 | -13.2%
CN(/N=C/c1cc(Br)cc(Br)c1O)c1cccc(C(F)(F)F)n1 | 23.7%
O=S(=O)(Nc1cccc(-n2cnnn2)c1)c1ccc(Cl)nc1 | 5.49%
Cc1nc(N2CCN(Cc3ccccc3)CC2)nc2c1C(=O)CC(C)C2 (stereo not shown) | -5.32%
Cc1ccc(C)[n+](CC(=O)c2ccc(-c3ccccc3)cc2)c1.[Cl-] | -27%
CC(=O)c1ccc(OCC(O)CN2CCOCC2)cc1.Cl (stereo not shown) | 9.11%
COc1ccc(C(=O)NC(=S)NNC(=O)c2ccco2)cc1 | 22%
CCOC(=O)Cc1nnc(Nc2ccc(C)cc2C)c2ccccc12 | -2.76%
CN(C)/C=C1/NC(=S)NC1=O | 0.253%
O=C(CC1Nc2ccccc2NC1=O)NCCc1ccccc1 (stereo not shown) | -3.96%
O=S(=O)(Nc1ncnc2c1oc1ccccc12)c1ccc(Cl)s1 | 16.2%
Cc1cccc(C)c1OCC(O)Cn1ccnc1C (stereo not shown) | -8.31%
